# Experimental data from PubChem BioAssay AID1768 (National Center for Advancing Translational Sciences (NCATS), 2009).
# Several values for one entry are separate records, joined by “and”; a condition that tells them apart may be missing. Identical values can stand only once. The campaign covered roughly 270,000 compounds. About 620 (0.23%) were called active. The inconclusive results got no clear call from the source; some entries with a clear call stand among them for comparison. Calls follow the shape of the dose curve; as a rule, active = well fitted inhibition curve with a large enough effect in the polarisation, with a control signal flat (not every such curve was filed as active); inconclusive = small, poorly fitted or top-dose-only effect, or effect the other way, or a change in a side signal; inactive = no such curve, though single readings can be large or run the other way; the % refers to the polarisation. Where the call is inconclusive, the potency comes from a doubtful curve fit. “Side channel” marks fits to a control or component signal instead of the main read-out.
# Target: Menin (Homo sapiens) (UniProt O00255)
# Sequence of UniProt O00255 (O00255 whole entry, looked up): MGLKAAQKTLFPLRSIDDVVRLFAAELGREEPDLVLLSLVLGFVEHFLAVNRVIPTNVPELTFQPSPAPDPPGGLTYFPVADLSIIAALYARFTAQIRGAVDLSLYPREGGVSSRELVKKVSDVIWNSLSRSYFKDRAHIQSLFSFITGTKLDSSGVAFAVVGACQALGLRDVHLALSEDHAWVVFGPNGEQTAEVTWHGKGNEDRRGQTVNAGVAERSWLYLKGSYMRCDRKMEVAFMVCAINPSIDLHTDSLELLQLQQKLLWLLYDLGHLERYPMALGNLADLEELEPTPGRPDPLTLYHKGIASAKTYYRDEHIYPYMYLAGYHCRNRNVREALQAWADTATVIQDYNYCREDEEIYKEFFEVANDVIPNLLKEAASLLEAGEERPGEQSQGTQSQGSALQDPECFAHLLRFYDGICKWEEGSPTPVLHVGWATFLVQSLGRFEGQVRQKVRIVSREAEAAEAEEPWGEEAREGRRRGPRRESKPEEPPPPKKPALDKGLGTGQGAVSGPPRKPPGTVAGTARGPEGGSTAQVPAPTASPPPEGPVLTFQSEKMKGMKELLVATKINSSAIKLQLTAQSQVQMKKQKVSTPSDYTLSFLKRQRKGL
# Assay: qHTS Assay for Inhibitors Targeting the Menin-MLL Interaction in MLL Related Leukemias: Competition With Texas Red Labeled MLL-derived Mutant Peptide; as to FP activity change, negative = inhibition: % of control where 0% means no effect
# Conditions: fluorescence polarization; series mostly up to 61.6 µM; FP activity change, negative = inhibition: at the top concentration
# Potency is read from the fitted curve at half-maximal effect; tags tell the direction and shape of the fitted curve or compound fluorescence and quenching.
Structure (SMILES),Potency,"FP activity change, negative = inhibition"
CCN(CC)P(=S)(c1c(C)nc2ccccn12)c1c(C)nc2ccccn12,"inconclusive: 39.8 µM [fluorescent, side channel, single point]",–
C=CCN1C(=O)NC(=O)/C(=C/c2ccoc2)C1=O,"inconclusive: 35.5 µM [fluorescent, side channel, single point]",–
c1ccc2c(c1)CN1CCCC1=N2,"inactive and inconclusive: 39.8 µM [inhibitor, single point]",–
COC(=O)C1=Nc2ccccc2/C1=C\c1c(O)n(-c2ccc(OC)cc2)c(=O)[nH]c1=O,"inconclusive: 8.91 µM [quencher, side channel, partial curve]",–
CCOc1cc2c(cc1OCC)-n1cccc1C(c1cc(C)c(OC)cc1C)NC2 (stereo not given),"inconclusive: 8.91 µM [fluorescent, side channel, full curve, poor fit]",–
CC(=O)[C@@]1(O)CC[C@H]2[C@@H]3C[C@H](C)C4=CC(=O)CC[C@]4(C)[C@H]3CC[C@@]21C,"inconclusive: 39.8 µM [inhibitor, single point]",–
O=C(N/N=C/c1c(O)n(CCc2ccccc2)c(=O)[nH]c1=O)c1ccncc1,"inconclusive: 12.6 µM [quencher, side channel, partial curve]",–
Nc1c(C(=O)NCCN2CCOCC2)c2nc3ccccc3nc2n1Cc1ccco1,–,inactive: -21.2%
CC1(C(O)(C#CCN2CCCCC2)c2ccccc2)CCCC1 (stereo not given),"inconclusive: 3.98 µM [fluorescent, side channel, full curve]",–
CCCC/C(C)=C/[C@@H](NP(=O)(c1ccccc1)c1ccccc1)c1ccccc1,"inconclusive: 10 µM [fluorescent, side channel, partial curve]",–
Cn1c(O)c(/C=C/C=Nc2ccccc2)c(=O)n(C)c1=S,"inconclusive: 17.8 µM [fluorescent, side channel, partial curve]",–
CN(C)C[C@H]1CCCC[C@]1(O)c1cccc(O)c1,"inconclusive: 0.708 µM [inhibitor, full curve, poor fit]",–
O=C(C(=O)N1CCOCC1)c1cn(Cc2ccccc2Cl)c2ccccc12,"inconclusive: 39.8 µM [inhibitor, partial curve]",–
CCCCCCCCCc1ccc(OCCOCCOCCOCCOCCOCCOCCOCCOCCO)cc1,"inconclusive: 7.08 µM [fluorescent, side channel, full curve, poor fit]",–
COc1ccc(C(O)P(=O)(OCC(C)C)c2ccc(N(C)C)cc2)c(OC)c1 (stereo not given),"inconclusive: 39.8 µM [inhibitor, partial curve]",–
CN1[C@@H]2CC[C@H]1CC(O[C@@H](c1ccccc1)c1ccc(Cl)cc1)C2 (stereo not given in full),"inconclusive: 6.31 µM [inhibitor, partial curve, poor fit]",–
CCOc1ccc(-c2cc(C)[n+](CCO)c(-c3ccc(OCC)cc3)c2)cc1,"inconclusive: 7.94 µM [fluorescent, side channel, partial curve]",–
Cc1cc(C=C(C#N)C#N)ccc1N1CCCC1,"inconclusive: 39.8 µM [inhibitor, single point]",–

Structure (SMILES),Potency,"FP activity change, negative = inhibition"
CCC(=NCc1ccc2c(c1)OCO2)c1c(O)n(C2CCCCC2)c(=O)[nH]c1=O,"inconclusive: 7.08 µM [fluorescent, side channel, full curve]",–
CN(C)C(=O)Oc1ccc(C(=O)c2ccccc2)cc1,–,inactive: -18.5%
Oc1ccc(Cl)cc1Cc1ccccc1,"inconclusive: 28.2 µM [quencher, side channel, partial curve]",–
Oc1ccc2c3c1O[C@H]1c4[nH]c5c(c4C[C@@]4(O)[C@@H](C2)N(CC2CC2)CC[C@]314)C[C@@]1(O)[C@H]2Cc3ccc(O)c4c3[C@@]1(CCN2CC1CC1)[C@H]5O4,"inconclusive: 7.08 µM [inhibitor, single point]",–
CCOC(=O)c1c(NC(=O)C(c2ccccc2)c2ccccc2)sc2c1C1CCN2CC1,"inconclusive: 2.82 µM [fluorescent, side channel, full curve]",–
CCCC(CCC)C(=O)OC[N+](C)(C)CCOC(=O)C(O)(c1ccccc1)C1CCCC1 (stereo not given),"inconclusive: 8.91 µM [fluorescent, side channel, full curve, poor fit]",–
O=C(Nc1nnc(SCc2ccccc2Cl)s1)C1COc2ccccc2O1 (stereo not given),"inconclusive: 28.2 µM [quencher, side channel, single point]",–
CCCCN1C(=O)/C(=C/c2ccc(N(C)C)cc2)C(=O)N(Cc2ccco2)C1=O,active: 25.1 µM,–
COC(=O)C12CC3=C[C@H](CC3=O)Cc3ccccc3[C@@H]1CNC2=O (stereo not given in full),inactive,–
COc1cc(-n2c(=S)[nH]c3ccccc3c2=O)c(Cl)cc1Cl,"inconclusive: 25.1 µM [quencher, side channel, single point]",–
CNCCCc1ccccc1,"inconclusive: 39.8 µM [inhibitor, single point]",–
CCCCn1c(=O)c(C(=O)Nc2cccc(C)c2)c(O)c2ccccc21,"inconclusive: 25.1 µM [quencher, side channel, single point]",–
Brc1ccc2[nH]cc(/C=N/N3CCCCC3)c2c1,"inconclusive: 22.4 µM [quencher, side channel, partial curve]",–
O=C(O)c1cccc2c1NC(c1cccc([N+](=O)[O-])c1)C1CC(Sc3ccccc3[N+](=O)[O-])C(Cl)C21 (stereo not given),"inconclusive: 14.1 µM [quencher, side channel, partial curve]",–
O=c1[nH]c(=S)n(Cc2ccc(F)cc2)c(O)c1/C=N/N1CCCCCC1,"inconclusive: 35.5 µM [quencher, side channel, partial curve]",–
CC1(C)C(C(=O)N2CCN(c3ccc(Cl)cc3)CC2)C1(C)C,"inconclusive: 14.1 µM [fluorescent, side channel, partial curve]",–
O=C(COc1ccc(Br)cc1)N1CCN(Cc2ccc3c(c2)OCO3)CC1,"inconclusive: 22.4 µM [inhibitor, single point]",–
